Only a part is listed here, and it is no random draw. At the low end of the ranking, values are background and their order means little. The list shows a part of the results.
Key:
[1] = target: AGO2 WT (phosphosite mutant background) S387D + S824A + S828D + S831D + S834A (UniProt Q9UKV8); assay: RNA Bind-n-Seq (nitrocellulose filter binding and sequencing); conditions: constant regions annealed to DNA blockers; guide miR-122 5' phosphate; 30 mM Tris pH 8.0, 100 mM potassium acetate, 2 mM magnesium acetate, 0.5 mM TCEP, 0.005% NP-40, 0.01 mg/ml yeast tRNA; 3 nM AGO2-miR-122, 100 nM RNA library …; high values mean tight binding
[2] = target: AGO2 F182del S387D + S824A + S828D + S831D + S834A + del182-182 (UniProt Q9UKV8); assay: as above; conditions: constant regions annealed to DNA blockers; guide miR-122 5' phosphate; 30 mM Tris pH 8.0, 100 mM potassium acetate, 2 mM magnesium acetate, 0.5 mM TCEP, 0.005% NP-40, 0.01 mg/ml yeast tRNA; 3 nM AGO2-miR-122, 100 nM RNA library …; high values mean tight binding

| Sequence | binding signal (fold enrichment over input) [1] | binding signal (fold enrichment over input) [2] |
| --- | --- | --- |
| GAGUUCUACAGUCCGACGAUCCCAACAUAUCCUACACCUGGAAUUCUCGGGUGCCAA / UGGAGUGUGACAAUGGUGUUUG / GATCGTCGGACTGTAGAACTC / TTGGCACCCGAGAATTCCA | 0.102 | 0.0777 |
| GAGUUCUACAGUCCGACGAUCCCAACGCGUCUUGCACCUGGAAUUCUCGGGUGCCAA / UGGAGUGUGACAAUGGUGUUUG / GATCGTCGGACTGTAGAACTC / TTGGCACCCGAGAATTCCA | 0.0948 | 0.0385 |
| GAGUUCUACAGUCCGACGAUCCCAACACACCCCGCACCUGGAAUUCUCGGGUGCCAA / UGGAGUGUGACAAUGGUGUUUG / GATCGTCGGACTGTAGAACTC / TTGGCACCCGAGAATTCCA | 0.152 | 0.82 |
| GAGUUCUACAGUCCGACGAUCCCAACGUAUCUCACACCUGGAAUUCUCGGGUGCCAA / UGGAGUGUGACAAUGGUGUUUG / GATCGTCGGACTGTAGAACTC / TTGGCACCCGAGAATTCCA | 0.141 | 1.35 |
| GAGUUCUACAGUCCGACGAUCCCAACACACUCUGCACCUGGAAUUCUCGGGUGCCAA / UGGAGUGUGACAAUGGUGUUUG / GATCGTCGGACTGTAGAACTC / TTGGCACCCGAGAATTCCA | 0.933 | 2.4 |
| GAGUUCUACAGUCCGACGAUCCCAACAUGCCUUGCACCUGGAAUUCUCGGGUGCCAA / UGGAGUGUGACAAUGGUGUUUG / GATCGTCGGACTGTAGAACTC / TTGGCACCCGAGAATTCCA | 0.0933 | 0.0418 |
| GAGUUCUACAGUCCGACGAUCCCAACAUAUUUUGCACCUGGAAUUCUCGGGUGCCAA / UGGAGUGUGACAAUGGUGUUUG / GATCGTCGGACTGTAGAACTC / TTGGCACCCGAGAATTCCA | 0.0998 | 0.0519 |
| GAGUUCUACAGUCCGACGAUCCCAACAUACUUCGCACCUGGAAUUCUCGGGUGCCAA / UGGAGUGUGACAAUGGUGUUUG / GATCGTCGGACTGTAGAACTC / TTGGCACCCGAGAATTCCA | 0.0924 | 0.0566 |
| GAGUUCUACAGUCCGACGAUCCCAACGUACCCUGCACCUGGAAUUCUCGGGUGCCAA / UGGAGUGUGACAAUGGUGUUUG / GATCGTCGGACTGTAGAACTC / TTGGCACCCGAGAATTCCA | 0.0887 | 0.0467 |
| GAGUUCUACAGUCCGACGAUCCCAACGUGCUUUACACCUGGAAUUCUCGGGUGCCAA / UGGAGUGUGACAAUGGUGUUUG / GATCGTCGGACTGTAGAACTC / TTGGCACCCGAGAATTCCA | 0.105 | 0.0604 |
| GAGUUCUACAGUCCGACGAUCCCAACACACCUCGCACCUGGAAUUCUCGGGUGCCAA / UGGAGUGUGACAAUGGUGUUUG / GATCGTCGGACTGTAGAACTC / TTGGCACCCGAGAATTCCA | 0.112 | 0.256 |
| GAGUUCUACAGUCCGACGAUCCCAACAUGCUCUACACCUGGAAUUCUCGGGUGCCAA / UGGAGUGUGACAAUGGUGUUUG / GATCGTCGGACTGTAGAACTC / TTGGCACCCGAGAATTCCA | 0.0984 | 0.0764 |
| GAGUUCUACAGUCCGACGAUCCCAACGUAUUCUACACCUGGAAUUCUCGGGUGCCAA / UGGAGUGUGACAAUGGUGUUUG / GATCGTCGGACTGTAGAACTC / TTGGCACCCGAGAATTCCA | 0.115 | 0.0789 |
| GAGUUCUACAGUCCGACGAUCCCAACGCAUUUUGCACCUGGAAUUCUCGGGUGCCAA / UGGAGUGUGACAAUGGUGUUUG / GATCGTCGGACTGTAGAACTC / TTGGCACCCGAGAATTCCA | 0.086 | 0.0358 |
| GAGUUCUACAGUCCGACGAUCCCAACAUACCUUACACCUGGAAUUCUCGGGUGCCAA / UGGAGUGUGACAAUGGUGUUUG / GATCGTCGGACTGTAGAACTC / TTGGCACCCGAGAATTCCA | 0.108 | 0.118 |
| GAGUUCUACAGUCCGACGAUCCCAACAUAUCUCGCACCUGGAAUUCUCGGGUGCCAA / UGGAGUGUGACAAUGGUGUUUG / GATCGTCGGACTGTAGAACTC / TTGGCACCCGAGAATTCCA | 0.0807 | 0.0512 |
| GAGUUCUACAGUCCGACGAUCCCAACAUGUUUUACACCUGGAAUUCUCGGGUGCCAA / UGGAGUGUGACAAUGGUGUUUG / GATCGTCGGACTGTAGAACTC / TTGGCACCCGAGAATTCCA | 0.12 | 0.21 |
| GAGUUCUACAGUCCGACGAUCCCAACACGUUCCGCACCUGGAAUUCUCGGGUGCCAA / UGGAGUGUGACAAUGGUGUUUG / GATCGTCGGACTGTAGAACTC / TTGGCACCCGAGAATTCCA | 0.0857 | 0.0618 |
| GAGUUCUACAGUCCGACGAUCCCAACGCGCCCCACACCUGGAAUUCUCGGGUGCCAA / UGGAGUGUGACAAUGGUGUUUG / GATCGTCGGACTGTAGAACTC / TTGGCACCCGAGAATTCCA | 0.115 | 0.0962 |
| GAGUUCUACAGUCCGACGAUCCCAACAUGCUUCGCACCUGGAAUUCUCGGGUGCCAA / UGGAGUGUGACAAUGGUGUUUG / GATCGTCGGACTGTAGAACTC / TTGGCACCCGAGAATTCCA | 0.0868 | 0.0415 |

From PMC12529666
